# Source: PubChem BioAssay AID1346428 (National Center for Advancing Translational Sciences (NCATS), 2018)
# About 1,200 (2.5%) of roughly 48,000 compounds were called active. Roughly 2% stayed inconclusive and do not appear here.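 The calls were made as follows: active = activation of at least 60% and not above a set upper limit (about 1 call in 100 departs from these limits); inconclusive = activation of 40% to 60%, or above that upper limit; inactive = activation under 40%.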 This is one part of the list.
# Target: Probable G-protein coupled receptor 32 (Homo sapiens) (UniProt O75388)
# Assay: qHTS for Agonists of Human Resolvin D1 Receptor DRV1; also: 0% is about no effect
# Settings: CHO-K1 GPR32 beta-arrestin PathHunter luminescence, 90 min; at 76.9 µM; active compounds read high; zero percent set by DMSO-only wells
# Procedure, shortened: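 Luminescent readout of beta-Gal complementation quantifies ligand-induced beta-arrestin association with GPR32 in CHO-K1 cells; 90 min compound incubation at 37 °C, detection 1 h at room temperature.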
# UniProt O75388, sequence (O75388 whole entry, looked up): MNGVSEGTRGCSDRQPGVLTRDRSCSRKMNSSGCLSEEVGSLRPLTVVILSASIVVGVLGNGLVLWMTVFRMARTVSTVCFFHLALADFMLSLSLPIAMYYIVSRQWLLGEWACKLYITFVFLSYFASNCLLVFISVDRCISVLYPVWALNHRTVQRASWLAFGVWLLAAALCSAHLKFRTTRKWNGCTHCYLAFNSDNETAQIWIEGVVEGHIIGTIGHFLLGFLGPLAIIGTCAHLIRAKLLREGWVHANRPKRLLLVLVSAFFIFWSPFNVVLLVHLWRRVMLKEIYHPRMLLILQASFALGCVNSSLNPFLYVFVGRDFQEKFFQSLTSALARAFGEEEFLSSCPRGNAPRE
row,Structure (SMILES),activation
1,CCOc1ccc(/C=C/c2nc(C#N)c(NCc3ccccc3)o2)cc1,inactive: -14.1%
2,O=C(NCCc1ccccc1Cl)C1CCN(c2nc3ccccc3nc2C(F)(F)F)CC1,inactive: -36.4%
3,COc1ccc(-n2c(-c3ccco3)nc3c(cnn3-c3ccc(Cl)cc3)c2=O)cc1,inactive: 30.4%
4,CC1(C)O[C@H]2[C@@H](O1)[C@@H](C(=O)Nc1ccccc1C(F)(F)F)O[C@@H]1OC(C)(C)O[C@@H]12,inactive: -0.883%
5,O=C(CSc1ccc(-c2cccs2)nn1)Nc1ccccc1C(F)(F)F,inactive: -7.46%
6,Cc1ccc(NC(=O)C2CCCN(C(=O)c3cnn(-c4ccc(F)cc4)c3-n3cccc3)C2)c(Cl)c1 (stereo not drawn),inactive: -2.12%
7,Cc1ccccc1CNC(=O)C(C)N(c1ccccc1)S(C)(=O)=O (stereo not drawn),inactive: -7.86%
8,COc1cccc(OC)c1OCCNCC1COc2ccccc2O1 (stereo not drawn),inactive: 0.687%
9,COc1ccc(Cl)cc1NC(=O)C(C)Sc1nc2c(c(=O)[nH]1)CCCC2 (stereo not drawn),inactive: 15.7%
10,Cc1sc2ncn(CC(=O)Nc3ccc(C(C)C)cc3)c(=O)c2c1S(=O)(=O)N1CCN(c2ncccn2)CC1,inactive: 0.282%
11,Cc1cccc(-c2noc(-c3cccnc3NCc3ccc(Cl)cc3)n2)c1,inactive: -7.06%
12,CC1(C)N=C(SCc2ccccc2Cl)c2ccccc2N1,inactive: -5.04%
13,Cc1ccc(S(=O)(=O)c2nnn3c2nc(NC(C)C)c2cc(Cl)ccc23)cc1C,inactive: -0.0247%
14,COc1ccc2c(c1)sc1ncc(C(=O)NCc3ccccc3F)c(=O)n12,inactive: -8.07%
15,Cc1ccccc1C(=O)N1CC(=O)Nc2ccc(Cl)cc2C1c1ccccc1 (stereo not drawn),inactive: -21.1%
16,O=C(CCSCc1cccc(Cl)c1)N1CCN(c2ccc(Cl)cc2)CC1,inactive: -29.1%
17,C#CCn1c(=NC(=O)c2ccc3c(c2)OCCO3)sc2cc(OC)c(OC)cc21,inactive: -0.731%
18,COc1ccc(CCNC(=O)CCCCn2c(=O)c3ccccc3n(CC(=O)Nc3c(C)cccc3C)c2=O)cc1OC,inactive: -3.58%
19,O=C(c1cccc(Cl)c1)N1c2nc(-c3ccco3)nn2C2(CCCCC2)[C@@H]2CCCC[C@@H]21,inactive: -7.5%
20,CCOc1ccc(NS(=O)(=O)c2ccc(C(=O)N(C)C)s2)cc1,inactive: 5.24%
21,Cc1nn(-c2ccc(N3CCCCC3)nn2)c(C)c1CCC(=O)Nc1ccc(F)cc1F,inactive: 2.47%

row,Structure (SMILES),activation
1,COc1ccc(S(=O)(=O)N2CCC(C(=O)Nc3ccccc3)CC2)cc1OC,inactive: 16.4%
2,CCOC(=O)c1c(C)[nH]c(C)c1S(=O)(=O)NCC(=O)Nc1cccc(C#N)c1,inactive: 7.67%
3,COc1cc(OC)cc(N2C(=O)N(Cc3ccc(C(C)(C)C)cc3)c3ccccc3S2(=O)=O)c1,inactive: -1.28%
4,COc1cccc(NC(=O)CC(=O)Nc2ccc3nc4n(c(=O)c3c2)CCCCC4)c1,inactive: -10.5%
5,Cc1nc2ccc(S(=O)(=O)CCC(=O)Nc3ccc(Cl)cc3)cc2s1,inactive: 3.87%
6,COC(=O)c1scc(-c2ccc(C)cc2)c1S(=O)(=O)N1CCN(c2ccccc2)CC1,inactive: -9.76%
7,COc1ccc(OC)c(NC(=O)CN2C(=O)CC(C)Sc3ccccc32)c1 (stereo not drawn),inactive: 22%
8,O=C(CCOc1ccccc1)N(Cc1cccnc1)c1nc2ccc(Cl)cc2s1,inactive: -4.33%
9,CCOc1ccc(NC(=O)CSc2oc(-c3ccc(F)cc3)nc2S(=O)(=O)c2ccc(C)cc2)cc1,inactive: -4.78%
10,O=C(Nc1ccc(Br)cc1F)c1cc(S(=O)(=O)NC2CCCCC2)ccc1F,inactive: -3.53%
11,Cc1nc2nc(NC(=O)c3ccc(C(C)(C)C)cc3)[nH]n2c(=O)c1Cc1ccccc1,inactive: 9.36%
12,Cc1ccc(CN(Cc2ccco2)C(=O)c2oc3cc(Br)ccc3c2C)cc1,inactive: -21.4%
13,Clc1ccccc1-c1nnc(COc2ccccc2)o1,inactive: 46.4%
14,Cc1ccc(-n2c(=O)c3c4c(sc3n(Cc3cc(=O)n5ccccc5n3)c2=O)CCC4)cc1C,inactive: -5.43%
15,COc1ccc(CNC(=O)Cn2ccc3cc(S(=O)(=O)N4CCCCC4)ccc32)cc1OC,inactive: 1.55%
16,C/C=C(/C(=C/C)c1ccc(OC(C)=O)cc1)c1ccc(OC(C)=O)cc1,inactive: 42.4%
17,COc1cc(CN2CCN(S(=O)(=O)c3ccc(NC(C)=O)cc3)CC2)cc(OC)c1OC,inactive: -2.66%
18,CCOC(=O)c1cc(C)n(CC2CCC(C(=O)Nc3ccccc3OC)CC2)c1C (stereo not drawn),inactive: 1.39%
19,CCc1ccc(N(CC)C(=O)Cn2nc(Cc3cccnc3)c3ccccc3c2=O)cc1,inactive: -40%
20,CCn1cc(C(=O)NCCc2ccc(OC)c(OC)c2)c(=O)c2cc(S(=O)(=O)N3CCCCCC3)ccc21,inactive: 2.59%
21,CCOC(=O)c1sc2ccccc2c1S(=O)(=O)Nc1ccc(C(C)=O)cc1,inactive: 22.1%

row,Structure (SMILES),activation
1,Cc1cccc(Cn2c(=O)n(Cc3ccccc3)c(=O)c3c2c2cc(C)ccc2n3C)c1,inactive: -1.59%
2,CC(=O)c1ccc(NS(=O)(=O)c2c(C)nc3scc(C)n3c2=O)cc1,inactive: 15.2%
3,Cc1ccc2oc(-c3ccc(C)c(NC(=O)C(C)(C)Oc4ccc(Cl)cc4)c3)nc2c1,inactive: -2.35%
4,COc1ccc(Cl)cc1NC(=O)N(C)CCc1c(C)nn(C)c1C,inactive: 16.2%
5,COc1ccccc1NC(=O)c1oc2ccccc2c1NC(=O)COc1cccc(C)c1,inactive: -4.62%
6,O=C(OCc1ccccc1)c1ccc(O)cc1,active: 68.1%
7,CCc1ccc(NC(=O)Cn2c(=O)n(CCC(C)C)c(=O)c3cccnc32)cc1,inactive: 24.5%
8,COc1ccc(-c2cc(C(F)(F)F)n3nc(-c4ccccc4)cc3n2)cc1OC,inactive: 32%
9,COc1ccccc1NC(=O)c1c(NCc2ccc(C)o2)sc2c1CCCCC2,inactive: -18.6%
10,CCOC(=O)N1CCc2c(sc3c2C(=O)NC(c2cc(OC)c(OC)c(OC)c2)N3)C1 (stereo not drawn),inactive: -8.65%
11,CCOC(=O)c1cc(S(=O)(=O)Nc2cc(F)ccc2C)[nH]n1,inactive: -3.57%
12,CCCc1nn2c(=O)cc(COC(=O)c3ccccc3NC(=O)COc3ccccc3)nc2s1,inactive: -2.81%
13,CCc1ccccc1NS(=O)(=O)c1ccc2c(c1)CC(=O)N2,inactive: -0.165%
14,CC(C)(C)C(=O)OCOC(=O)[C@@H]1N2C(=O)[C@@H](NC(=O)[C@H](N)c3ccccc3)[C@H]2SC1(C)C,inactive: 20.9%
15,CC(=O)Nc1nonc1-c1nnc(SCc2ccccc2F)n1C,inactive: 0.905%
16,CC(=O)c1ccc(N2CCN(c3ncnc4c3c(-c3ccccc3)cn4-c3ccc(Cl)cc3)CC2)cc1,inactive: -25.9%
17,Cc1ccc(/C=C/c2onc(C)c2S(=O)(=O)N2CCC(C(=O)Nc3ccccc3C(F)(F)F)CC2)cc1,inactive: -29.3%
18,CCCCSc1nnc2n(-c3ccc(OC)cc3)c(=O)c3c4c(sc3n12)COC(C(C)C)C4 (stereo not drawn),inactive: -6.27%
19,CC(=O)c1ccc(NC(=O)c2cc(C)nc3c2c(C)nn3-c2ccc(C)cc2)cc1,inactive: -6.27%
20,Cc1cccc2c1N(Cc1ccccc1OCCC(C)C)C(=O)C2=O,inactive: -44.6%
21,COc1ccc2c(c1)c(=O)c(S(=O)(=O)c1ccccc1)cn2CC(=O)Nc1ccc(C)c(Cl)c1,inactive: -5.29%

row,Structure (SMILES),activation
1,COc1ccc(-n2c(=O)c3c(c4cc(OC)ccc4n3C)n(Cc3cccc(C)c3)c2=O)cc1,inactive: -0.201%
2,CCOC(=O)c1c(C)[nH]c(C)c1S(=O)(=O)N1CCCC(C(=O)NCc2ccc(N(C)C)cc2)C1 (stereo not drawn),inactive: -24.9%
3,CC(C)CC(=O)Nc1nnc(S(=O)(=O)N(C)Cc2ccc(Cl)cc2)s1,inactive: -11.2%
4,COc1ccc(-n2cc(C(=O)NCCc3cc(OC)ccc3OC)c3ccccc3c2=O)cc1,inactive: -17.1%
5,CCC(C(=O)Nc1cccc(-c2nc3cccnc3s2)c1C)c1ccccc1 (stereo not drawn),inactive: -25.9%
6,CNC(=O)CSc1cn(CC(=O)N2CCCCCC2)c2ccccc12,inactive: -11%
7,CC1=C(C(=O)Nc2ccc(C)cc2C)C(c2cccs2)n2nc(SCc3cccc(C)c3)nc2N1 (stereo not drawn),inactive: 4.04%
8,CCOC(=O)CSc1nc2c(sc3ccccc32)c(=O)n1CCO,inactive: -12%
9,COc1ccc(OCC(O)Cn2c(NCCO)nc3c2c(=O)n(C)c(=O)n3C)cc1 (stereo not drawn),inactive: -9.3%
10,Cc1nn(CC(=O)N2CCN(c3ccc(Cl)cc3)CC2)c(=O)c2cccn12,inactive: -10.4%
11,CCN(CC)CCCNc1ncnc2c1cnn2-c1ccc(C)c(C)c1,inactive: 19.1%
12,Cc1csc2nc(COc3cccc(NC(=O)c4ccccc4F)c3)cc(=O)n12,inactive: 6.69%
13,Cc1ccc(-n2c(=O)c3c(c4cc(C)ccc4n3C)n(CC(=O)N3CCCC3)c2=O)cc1,inactive: -10.6%
14,O=C(CSC1=Nc2ccccc2N=C(c2ccc(F)cc2)C1)Nc1ccccc1,inactive: -15.4%
15,CCOc1ccc(NC(=O)c2c(NC(=O)Cc3ccccc3)sc3c2CCCCC3)cc1,inactive: -12.7%
16,Cc1cc(C)c(NC(=O)C2CCN(c3nn4c(=O)cc(C)nc4s3)CC2)c(C)c1,inactive: 4.49%
17,COc1ccc(NCc2cccn2-c2nnc(N3CCCCC3)s2)cc1OC,active: 83.8%
18,Cc1ccc2nc(COc3ccccc3NC(=O)c3ccc(F)cc3)cc(=O)n2c1,inactive: 3.38%
19,Cc1cc(C)cc(NC(=O)Cn2cc(C(=O)C3CCCCC3)c3ccccc32)c1,inactive: 9.71%
20,O=C(CSc1nc2c([nH]c3ccccc32)c(=O)n1-c1ccc(Cl)cc1)c1ccccc1,inactive: 8.73%
